Sequences with one replicate were seen in a single cluster, so their values are uncertain.
System: ATP
Test: switch fluorescence ratio, 500 uM ATP over buffer (Cy3 cluster intensity, sum of 5 cycles each) (fold (ratio)); higher = stronger signal-on switching upon ATP binding; sequences stand for … in TCGTCGGCAGCGTCAGATGTGTATAAGAGACAGTTTTTTTTTTTTTTTTTTTTTTTTT…TC
Details: aptamer strand: ATP DNA aptamer (quencher-CACCTGGGGGAGTATTGCGGAGGAAGG + anchor), 100 nM annealed; ATP concentration: 500 uM; one replicate
Procedure, shortened: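 After annealing to 100 nM quencher-labelled ATP aptamer, Cy3-labelled switching-strand clusters on a modified Illumina MiSeq flow-cell were imaged in selection buffer. A second image followed after 15 min with 500 uM ATP at 22 °C, and five such buffer/ATP cycles were done, each separated by NaOH stripping and re-annealing. The fluorescence ratio, averaged per switch-domain sequence, is summed target-cycle over summed buffer-cycle Cy3 intensity per cluster, with clusters outside 100-1000 RFU excluded.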
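Also: ATP exposure 15 min at 22 °C before imaging.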

Sequence | switch fluorescence ratio
GACCCAGTTG | 1.3
GACCCTCTCC | 1.45
GACCGACGTC | 1.25
GACCGATCAA | 1.08
GACCTAACGA | 1.44
GACCTATGGC | 1.06
GACCTCGCTC | 1.19
GACCTGAATA | 1.04
GACCTGCGTG | 1.01
GACCTTTGGC | 1.04
GACGAAACGT | 1.08
GACGAAACT | 1.1
GACGACAGTG | 0.989
GACGATTTTG | 0.96
GACGCAACGG | 2.17
GACGCCCGAA | 1.06
GACGCCCGCT | 1.31
GACGCCGGGA | 1.1
GACGCGCCAG | 0.994
GACGGCCACG | 0.986
GACGGGAATA | 1.31
GACGGGCACT | 1.05
GACGTAAGGG | 1.1
GACGTAGAGT | 0.988
GACGTCTATA | 1.08

Sequence | switch fluorescence ratio
GACGTCTTGC | 1.04
GACGTGATCG | 1.01
GACGTTGGAG | 0.993
GACGTTGGCG | 1.05
GACTAACAGT | 1.04
GACTACAAGC | 1.15
GACTACCTAA | 1.1
GACTACTTTG | 0.987
GACTAGCTAT | 1.1
GACTATAGAA | 1.06
GACTCCGAGA | 5.61
GACTCGCCCG | 0.969
GACTCTCTAA | 1.05
GACTCTGGCG | 1.05
GACTCTT | 1.04
GACTCTTTGC | 1.07
GACTGAACAT | 1.14
GACTGACTTC | 1.05
GACTGGGCTG | 0.969
GACTGTCCCG | 1.04
GACTGTCCTC | 1.02
GACTTCAGT | 0.994
GACTTCTGGC | 0.957
GACTTGGTAA | 0.99
GACTTGTGTG | 0.967

Sequence | switch fluorescence ratio
GACTTTTCAA | 0.96
GACTTTTTTG | 0.991
GAGACCTGTG | 1.02
GAGACGGCCC | 1.05
GAGACGGTGC | 1.04
GAGAGATACA | 1.01
GAGAGCTCAT | 1.04
GAGAGCTTAA | 1.01
GAGAGTCCTG | 1
GAGATACACC | 1.14
GAGATACTGC | 0.991
GAGATGGCAG | 1.01
GAGATGGTAA | 1.04
GAGATTAACA | 0.939
GAGATTAGGC | 1.01
GAGCACAG | 1.1
GAGCACCGGT | 1.07
GAGCATTTAA | 1.04
GAGCCACAAA | 1.03
GAGCCCGCGA | 1.08
GAGCCCGGTG | 2.84
GAGCCGAAGA | 0.99
GAGCCTCTGA | 1.02
GAGCCTGAGT | 1.02
GAGCGAGTCG | 0.987

Sequence | switch fluorescence ratio
GAGCGCAAGG | 1.03
GAGCGCACAT | 1.15
GAGCGGTGTG | 0.999
GAGCGTTTTT | 1.03
GAGCTAAACT | 1.13
GAGCTAACGA | 1.04
GAGCTAACTC | 1.16
GAGCTAATAA | 1.69
GAGCTACCGG | 0.998
GAGCTATAGG | 1.15
GAGCTATCCT | 1.09
GAGCTATTGG | 0.925
GAGCTCAGGC | 1.01
GAGCTCTCCG | 1.24
GAGCTTCGAG | 1.01
GAGGAATTTG | 1.25
GAGGACAGGT | 0.999
GAGGACTGTG | 1.21
GAGGAGCTTA | 1.01
GAGGAGTGGC | 1.08
GAGGATAAAT | 1.01
GAGGATTGAA | 0.959
GAGGCAGGT | 0.991
GAGGCATCAC | 1.36
GAGGCCAAGA | 1

Reference: the supplement of paper PMC10126150
